# Results as given in the supplement of paper PMC11417369.
# The list shows a part of the results.
# System: PfSIP2 AP2 domain 1 (GST-tagged)
# Test: gcPBM binding intensity (ln(normalized median fluorescence intensity)); higher = stronger DNA binding
# In short: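 GST-fused DNA-binding domains of P. falciparum, expressed in E. coli, were applied at about 25 μg on average for 1 h to an Agilent 4 × 180k array of primer-extended double-stranded 36-bp intergenic genomic probes and negative controls. Binding intensity is the highest Masliner-normalised natural-log median intensity across replicate spots of either probe orientation, measured with Alexa488 anti-GST antibody and a 488 nm scan.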
row,Sequence,gcPBM binding intensity (ln)
1,CTTTTTACTTAATACACACACACACCCAAAAAAAAA [CACACA_site948],7.57
2,CATCAAAATGAAGCATGTACATAATATAAATAAATA [XGTACX_site4647],7.02
3,TGACGACATTTCTTATGTACTAATTTTTCTTCCTTT [XGTACX_site4391],6.84
4,TAAAAAAAGAAAAAAAGTACATGCTACTTTTATGAT [XGTACX_site7818],6.99
5,CAAAATGATATGACAACACACAACCTATAGTAAGAC [CACACA_site1287],7.17
6,TAATATATAATAAAGTGTACATATGCTTTATTATTA [XGTACX_site1920],6.98
7,TGAATGCTTTTATGCACACGTACAAAAATATTATAT [CACACA_site2668],7.38
8,AATAAAAATAACCTAACATGCAAAAAAAAAAAAAAA [TGCATGCA_site718],6.82
9,GTCATTAAAAAAATATGTACTTAAATGTATGCATAT [XGTACX_site5951],7.12
10,GGAATATAAATACATACACACATATATATATATATA [CACACA_site4998],9.34
11,TATAATAAATCAAATGCACACACACTAATAAAAAAA [CACACA_site7937],7.53
12,TATATATTATATATATGTACTTATTTATTAATTTAT [XGTACX_site5253],7.21
13,TGTGGTTTTTATAATTGTACATATATATAAATCTAT [XGTACX_site4766],7.17
14,ATATAAAATAAATAAGTGCAGATAAATTTATGTGAC [GTGCAC_site9504],8
15,TGTTGTTATAAAAAAAAAAAAAAAAAAAAAAAAAAA [GTGCAC_negctrl_site230],7.12
16,ATGAATATTTACAATCTTATTATGTTCAAAATTAAT [CACACA_negctrl_site592],6.69
17,TACATGCTTATTTTAACACACAAATGGTAGTAATAA [CACACA_site766],6.93
18,ATTTATTTATTTTCATGTACATATGTAAATCAATAA [XGTACX_site3886],7.02
19,TATATAATATAATGTAGTACATGTTTTATTTTTTAC [XGTACX_site7735],7.19
20,ATAAAATACAAAGGGACACACATATGAGTCTACAAA [CACACA_site3092],6.83
21,TCACAAATGTATTATACACACAAGTTTTCTTTAATA [CACACA_site4107],6.89
22,ATATTAACTTTTATTACACACTCTCAACTTTTATTT [CACACA_site6176],7.09

row,Sequence,gcPBM binding intensity (ln)
1,AAGTTATACACATCAACACACACATACAACGTGGTG [CACACA_site8312],6.89
2,TAAACACATTATATATGTACATAATAAAAAAAAAAA [XGTACX_site7907],7.12
3,ATATATAAAAAAGCTAGTACACAAAAATATATAATG [XGTACX_site3001],7.37
4,AAAAAAATTTATTAAAGTACTAGATAATCATATAAA [XGTACX_site1455],7.09
5,TTCTTTTCTCTTTTAATCATATTATATAAATGAATA [CACACA_negctrl_site820],7.29
6,AGAATAATATAATAAAGTACAAACCTATCTAACTAC [XGTACX_site5477],7.09
7,ATTATAAATAAATATTGTACTTATATGATCTATTTG [XGTACX_site3820],6.91
8,CCTTTCACATATAATACATGCATTATTATATATGAA [TGCATGCA_site287],7.51
9,ATTGCATTTGTAGATAATACAATATGGATTGTTATA [CACACA_negctrl_site1749],6.71
10,GGATATATTATATGTACACACACATATAAGGGATTA [CACACA_site7884],7.09
11,AAAAATTTTATATTCACACACATATTTATATTTATA [CACACA_site6439],6.86
12,GAGTAAAAATTAAAATGTACATATTATATATATTTA [XGTACX_site1319],6.83
13,ATGAATGTCCCAAGATGTACAATTATATATAACACA [XGTACX_site4702],7.21
14,AAATCCTTATTTTTTTGTACGTAATATTTTATATGG [XGTACX_site1530],6.94
15,TAATAAATAAGACACACACACATATATATATATTAT [CACACA_site1389],7.07
16,TTTTAAGATATAAATTAATACTTATATATATAGATA [CACACA_negctrl_site22],6.75
17,ATAATTATTAATATAGTGCATTGGCATAATAATATA [GTGCAC_site9810],8.38
18,ATATTAATATAATGTGCATGTTCAATGATCTTTTTA [TGCATGCA_site22],7.37
19,TTATACAACAAGAAAATTATAAAATGTAACATATAT [GTGCAC_negctrl_site406],7.05
20,TATTTTTTAACACAACGTACATATAAAAAATATTTA [XGTACX_site6025],7.08
21,TACAAATATATATGCACACACATATATGTATATGTG [CACACA_site3075],7.37
22,TTAGATATAATATATACACACCAACGAACGAAGAAA [CACACA_site4763],7.23

row,Sequence,gcPBM binding intensity (ln)
1,AGTAAATAACACAAATATGAATGAAAAAAAAAATAT [GTGCAC_negctrl_site235],7.15
2,CAACTTATTAAAAGTCGTACAAATGGGAAGAAGGAA [XGTACX_site6325],7.36
3,TGTGCGGAAATAAGTGCACACATAGATATCTGTATT [CACACA_site5935],10.9
4,ATATATATATAGTACGCACACATAGTTGTACATTAA [CACACA_site2787],8.63
5,CGTATGAGTAAATACACACCCACGTATATATATAAA [CACACA_site5728],7
6,TATATACACATATATAAACACACAAAAAAAAAAAAA [CACACA_site8626],7.01
7,ATACAAATTGTTTAAAGTACAAATTACACCTCTTAA [XGTACX_site6888],6.93
8,CATACAGACATACATACACACATACATACAGACATA [CACACA_site6996],7.2
9,TGTAAATATATATATACACACACACCGAAGCAATAG [CACACA_site8960],7.36
10,TTTTTTTTTTTTTAAACATGCATATTAATATTATAT [TGCATGCA_site820],7.01
11,GTATATCACACATTTGCATGTTGTCAATAGTTTATC [TGCATGCA_site134],7.06
12,TAAAAAGGAAGACACACACACACATATATAAATATA [CACACA_site7657],6.87
13,ACATTAAAAAAAAAATGTACATAAATATTTTTCCTT [XGTACX_site4361],6.91
14,ATCTTTTATATAAAATGTACAGAGTTTGAAAGAATA [XGTACX_site8826],7.3
15,AATTTTATTCATTGAGCACACAAAATAAATTATCAA [CACACA_site9079],6.87
16,GTATTACAACGACACACACACCTATATATCATAGTA [CACACA_site7877],7.15
17,GATATTATGTGTTTGGTATTTTTTGATGTTGGTAGG [XGTACX_negctrl_site563],7.01
18,TAGAACAAATAAAACACACACATATAAATATAGATG [CACACA_site7325],7.14
19,GTGCAAAATATTTTTACACACAAATTCTTACAACAG [CACACA_site7556],9.32
20,ATATCTATGTTTATCTCGAATAACTTAAAAAATTAT [CACACA_negctrl_site1131],6.93
21,TCTTTCTAAAGATGTAGTACAAAATAAATATAATAT [XGTACX_site6564],7.17
22,TTTATACAAACAACTTTATATTAATGTTTAACGGAG [GTGCAC_negctrl_site396],7.08

row,Sequence,gcPBM binding intensity (ln)
1,AAGGCAAACAAACACACACACATATATACATATATA [CACACA_site2122],7.17
2,TTATCACACCTTTTTTGTACGAAATAAAAAAAAAAA [XGTACX_site5564],7.22
3,TAATATGCTCATGTAACACACATTTGCATATTTTTC [CACACA_site1357],6.66
4,ATATGTATGAAGTGTACACATATATTGTATTTTCTT [CACACA_site5503],7.01
5,GTAAGCACACATAGTTGTACATTAATAAAAATAAAT [XGTACX_site5876],7.22
6,TTCCTATAAAAAAACACACACATATAAATATATATA [CACACA_site2318],7
7,AACAATTTATATAAAGCACACATGGGAAGGAAATAC [CACACA_site1712],7.81
8,TACAATTTAATATATACACACAAATAAATTATGCTT [CACACA_site856],6.73
9,ATATATGACAAATGTAGTACAAATTATTGTATCATA [XGTACX_site3675],6.97
10,TTATTGCATATTTACACACGTACTAATTTAAACAAG [CACACA_site971],7.28
11,AGAATATTTAAAAAAGGTACACAAAAACCAAAATAA [XGTACX_site8569],7.32
12,TATTAATACAGACACACACACACACCCAATAAAATA [CACACA_site243],7.27
13,ATAAATTCATATATGAGTACTAAAAATATCTTTTTC [XGTACX_site5541],6.87
14,AAAAAAAACGAACACACACACATTCAATATAAAACA [CACACA_site6170],6.9
15,CAATGGTCATTTAGTTGTACTTAATTTTAAATCAAA [XGTACX_site4075],7.06
16,TTTTTTGTTATTAAAAGTACATTATATGCTAGTTAA [XGTACX_site8747],6.94
17,TTAAAAATATTATGTACACACATTTGAGATATTTGT [CACACA_site6953],6.95
18,TGAAATAAAATTTATACACACTTGCTAAATGATCAT [CACACA_site4265],6.72
19,TATCATTAATTTACATGTACATAAATGAATGTTTAT [XGTACX_site5608],7
20,TTCGTAATTTATATCACACACATATATCTATAATAA [CACACA_site7458],7.47
21,AAAGGCTATCTTATATACTCCTAAAACGCGAACGTA [CACACA_negctrl_site396],6.71
22,AATATATAAATATTGTGTACTTATTTTTTTATATGT [XGTACX_site4377],7.16
